Data on 51 compounds can be found in ChEMBL document CHEMBL1201862, “PubChem BioAssay data set” (2004).

Molecules are shown by their SMILES. Structures can show the parent of a compound that is named as a salt.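 How tested: cells in 96-well plates exposed to compound for 48 hours at five concentrations. Here, GI50 denotes the concentration required for 50% inhibition of growth.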 Active and inactive are the calls of the source. Rule as the data show it: active = GI50 up to about 1.1 µM and inactive = higher.

The test system of this experiment is NCI-H322M. Kind of experiment: growth of human tumour cells (NCI), 48 h.
With `NC(=O)c1ccc(N)nc1` [6-AMINONICOTINAMIDE], the GI50 was inactive: 28.3 µM.

Regarding `O=c1cc(-c2ccccc2)oc2ccc(Cl)cc12` [6-CHLOROFLAVONE], the GI50 was inactive: > 64 µM.

Turning to `CC(C)=CC[C@H]1C[C@]2(CC=C(C)C)C(=O)[C@@](CC=C(C)C)(C(=O)C(C(=O)c3ccccc3)=C2O)C1(C)C` [6-EPI-CLUSIANONE], the GI50 was inactive: 5.98 µM.

As to `CC[C@@]1(O)C(=O)OCc2c1cc1n(c2=O)Cc2cc3c(N)cccc3nc2-1` [9-AMINOCAMPTOTHECIN], the GI50 was active: 0.104 µM.

Consider `C/C=C/C1=C(Cl)C(=O)[C@@H](Cl)[C@@]1(O)C(=O)OC` [(+)-CRYPTOSPORIPSIN], for which the GI50 was inactive: 15.4 µM.

`CC(C)=CCN1c2ccccc2[C@@]2(CC=C(C)C)CCN(C)[C@@H]12` [(+)-DEBROMOFLUSTRAMINE B]: the GI50 was inactive: 40.9 µM.

Take `O=C(NCP(=O)(O)O)c1cccnc1` [(NICOTINAMIDOMETHYL)PHOSPHONIC ACID]: the GI50 was inactive: > 100 µM.

On to `CCC(CO)Nc1nc(NCc2ccccc2)c2ncn(C(C)C)c2n1` (stereo not drawn) [(RS)-ROSCOVITINE], for which the GI50 was inactive: 29 µM.

In the case of `CC(=O)Nc1cc([As](=O)(O)O)ccc1O` [ACETARSONE], the GI50 is inactive: > 100 µM.

In the case of `CC(=O)Oc1ccccc1` [ACETIC ACID PHENYL ESTER], the GI50 is inactive: > 100 µM.

As to `CCCCCCC(O)C(O)CCC(O)C1CCC(CCCCC(O)CC2=CC(C)OC2=O)O1` (stereo unspecified) [ACETOGENINS], the GI50 is inactive: 5.2 µM.

For the compound `N[C@H](C(=O)O)[C@@H]1CC(Cl)=NO1` [ACIVICIN], the GI50 is inactive: 10 µM.

As to `CN(C)c1ccc2cc3ccc(N(C)C)cc3nc2c1` [ACRIDINE ORANGE], the GI50 is inactive: 1.19 µM.

Regarding `Cc1cc2cc3cc(C)c(N)cc3nc2cc1N` [ACRIDINE YELLOW], the GI50 is active: 0.543 µM.

Consider `CC1(C)S[C@@H]2[C@H](NC(=O)CCC[C@@H](N)C(=O)O)C(=O)N2[C@H]1C(=O)O` [ADICILLIN], for which the GI50 is inactive: > 50 µM.

Turning to `C=CCSS/C=C/C[S+]([O-])CC=C` (stereo unspecified) [AJOENE], the GI50 was inactive: > 100 µM.

Consider `NC(=O)NC1NC(=O)NC1=O` (stereo unspecified) [ALLANTOIN], for which the GI50 was inactive: > 100 µM.

Regarding `O=C(O)CCC(=O)C(=O)O` [ALPHA-KETOGLUTARIC ACID], the GI50 is inactive: > 100 µM.

Turning to `COC(=O)C1=CO[C@@H](C)[C@@H]2Cn3ccc4c5ccccc5nc-4c3C[C@H]12` [ALSTONINE HYDROCHLORIDE], the GI50 is inactive: > 100 µM.

With `Cc1cc(O)cc2oc(=O)c3c(O)cc(O)cc3c12` [ALTERNARIOL], the GI50 is inactive: 27.1 µM.

Regarding `CN(C)c1nc(N(C)C)nc(N(C)C)n1` [ALTRETAMINE], the GI50 was inactive: > 150 µM.

On to `C[C@@]1(c2ccccc2)O[C@@H]2C[C@H]3[C@@H]4CCC5=CC(=O)C=C[C@]5(C)[C@@]4(F)[C@@H](O)C[C@]3(C)[C@]2(C(=O)CO)O1` [AMCINAFIDE], for which the GI50 is inactive: 17.5 µM.

In the case of `NCCCNCCSP(=O)(O)O` [AMIFOSTINE], the GI50 was inactive: > 750 µM.

For `NCCO/C=C/C(N)C(=O)O` (stereo unspecified) [AMINOETHOXYVINYLGLYCINE], the GI50 was inactive: > 100 µM.

For the compound `NCc1ccc(C(=O)O)cc1` [AMINOMETHYLBENZOIC ACID], the GI50 was inactive: > 100 µM.

Take `CC1(C)S[C@@H]2[C@H](NC(=O)[C@H](N)c3ccccc3)C(=O)N2[C@H]1C(=O)O` [AMPICILLIN]: the GI50 was inactive: > 100 µM.

In the case of `c1cc2c3c(c1)c1cc4c(cc1c[n+]3CC2)OCO4` [ANHYDROLYCORINIUM CHLORIDE], the GI50 was inactive: 5.61 µM.

For the compound `CCCCN(CC)c1nc(C)nc2c1c(C)c(C)n2-c1c(C)cc(C)cc1C` [ANTALARMIN], the GI50 is inactive: 16.9 µM.

Consider `O=C1c2c(O)cccc2Cc2cccc(O)c21` [ANTHRALIN], for which the GI50 was inactive: 1.56 µM.

For `CO[C@H]1Nc2c(ccc(C)c2O)C(=O)N2C=C(/C=C/C(N)=O)C[C@@H]12` [ANTHRAMYCIN METHYL ETHER], the GI50 was active: 0.0676 µM.

Turning to `O=C1c2cccc(O)c2C(=O)c2cccc(O)c21` [ANTHRARUFIN], the GI50 was inactive: > 100 µM.

On to `NC(CCCCCP(=O)(O)O)C(=O)O` (stereo unspecified) [AP-7], for which the GI50 is inactive: > 100 µM.

Turning to `O=c1cc(-c2ccc(O)cc2)oc2cc(O[C@@H]3O[C@H](CO)[C@@H](O)[C@H](O)[C@H]3O)cc(O)c12` [APIGETRIN], the GI50 was inactive: 87.1 µM.

Take `COC1=C(Br)[C@H](O)[C@@]2(C=C1Br)CC(C(=O)NCCCOc1c(Br)cc(C(O)CNC(C)=O)cc1Br)=NO2` (stereo partly specified) [APLYSINAMISINE III]: the GI50 is inactive: > 10 µM.

On to `COC1=C(Br)[C@H](O)[C@@]2(C=C1Br)CC(C(=O)NCCCCCNC(=N)N)=NO2` [APLYSINAMISINE II], for which the GI50 is inactive: > 10 µM.

Regarding `CC(C)=CCc1cc(/C=C/C(=O)O)cc(CC=C(C)C)c1O` [ARTEPILLIN], the GI50 is inactive: > 100 µM.

Regarding `COc1cc(O)c2c(=O)cc(-c3ccc(O)cc3O)oc2c1CC=C(C)C` [ARTOCARPETIN A], the GI50 was inactive: 19.5 µM.

On to `COc1cc2oc(-c3ccc(O)cc3O)c(CC=C(C)C)c(=O)c2c(O)c1/C=C/C(C)C` [ARTOCARPIN], for which the GI50 was inactive: 6.24 µM.

`c1ccc2c(Cc3c[nH]c4ccccc34)c[nH]c2c1` [ARUNDINE]: the GI50 was inactive: 15.2 µM.

Take `O=C1c2cccnc2-c2nccc3c2c1nc1ccccc13` [ASCIDIDEMIN]: the GI50 was active: 0.105 µM.

With `C=C1C(=O)O[C@@H]2C[C@@]3(C)[C@H](O)CCC(=C)[C@@H]3C[C@H]12` [ASPERILIN], the GI50 was inactive: 7.52 µM.

For `CC[C@@]12CCCN3CC[C@]4(c5cccc(OC)c5N(C(C)=O)[C@@H]4CC1)[C@H]32` [ASPIDOSPERMINE], the GI50 was inactive: > 100 µM.

For the compound `O=C1c2ccccc2C(=O)c2c1ccc(O)c2O` [ATHRAQUINONES A], the GI50 is inactive: 49.9 µM.

In the case of `O=C1C=CC(=C(c2ccc(O)cc2)c2ccc(O)cc2)C=C1` [AURIN], the GI50 was inactive: 15.4 µM.

On to `CC(C)(O)CCc1ccc(O)c2c(=O)c3c(O)c4c(cc3oc12)O[C@H]1OC=C[C@@]41O` [AUSTOCYSTIN D], for which the GI50 was active: < 0.01 µM.

For the compound `COc1cc(O)c2c(=O)c(OC)c(-c3ccc(OC)c(O)c3)oc2c1` [AYANIN], the GI50 is inactive: 38 µM.

Take `O=C1c2ccccc2C(=O)c2c1cc(S(=O)(=O)O)c(O)c2O` [Alizarin Red S]: the GI50 is inactive: > 100 µM.

Turning to `COC(=O)[C@]12CCC(C)(C)C[C@H]1[C@H]1C(=O)C=C3[C@@]4(C)C=C(C#N)C(=O)C(C)(C)[C@@H]4CC[C@@]3(C)[C@]1(C)CC2` [BARDOXOLONE METHYL], the GI50 is active: 0.0261 µM.

`CCCCCCCCCCCCCCCCCCOCC(O)CO` (stereo unspecified) [BATILOL]: the GI50 was inactive: > 25 µM.

In the case of `CCc1oc2ccccc2c1C(=O)c1cc(Br)c(O)c(Br)c1` [BENZBROMARONE], the GI50 was inactive: 22.6 µM.

In the case of `OB1OCc2ccccc21` [BENZOXABOROLE], the GI50 is inactive: 74.5 µM.
